In the BET-seq Pho4 binding data (Le et al. 2018):
The list shows a part of the results. The energies were worked out here from pooled read counts, against the library average; single values are noisy.

target: T1, Pho4 (S. cerevisiae) (UniProt P07270); assay: relative binding free energy (BET-seq); higher = weaker binding; conditions: reference: library average
T1 sequence: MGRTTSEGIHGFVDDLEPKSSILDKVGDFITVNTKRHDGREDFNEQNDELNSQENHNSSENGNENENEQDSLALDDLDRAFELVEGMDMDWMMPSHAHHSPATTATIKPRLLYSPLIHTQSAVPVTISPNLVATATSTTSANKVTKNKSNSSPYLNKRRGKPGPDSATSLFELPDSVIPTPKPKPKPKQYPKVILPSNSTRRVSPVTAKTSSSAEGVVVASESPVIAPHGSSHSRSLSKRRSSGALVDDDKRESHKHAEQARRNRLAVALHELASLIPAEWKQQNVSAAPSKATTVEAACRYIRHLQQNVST

Sequence | relative binding free energy [kcal/mol]
GGCTGCACGTGTTGTT | -0.07
TGTCTCACGTGGATAT | 0.14
TCTAGCACGTGTCTGT | -0.06
CTTTTCACGTGACGTG | 0.21
TAATGCACGTGTTAGG | -0.01
GTGAGCACGTGTGGAT | -0.1
GTCGGCACGTGAGTCG | 0.11
CTGCGCACGTGAAGGT | 0.14
GCGTGCACGTGGGAGT | -0.11
GTGAACACGTGGTAGT | -0.08
TTGTTCACGTGAGTCA | 0.38
TGGGTCACGTGCTGAT | 0.02
GCTTTCACGTGCGGTT | 0.4
GAATGCACGTGAGTAG | 0.31
TTAATCACGTGTATTG | 0.02
GTGACCACGTGGCGTG | -0.12
TGAGCCACGTGGTGGA | -0.17
TTCGACACGTGTTGAG | 0.07
GTATACACGTGTATTG | -0.01
TGTAACACGTGCTGTG | -0.09
TTACTCACGTGTAGTT | 0.16
AGGGGCACGTGGGTGT | -0.27
GTTGCCACGTGATAGT | 0.03

Sequence | relative binding free energy [kcal/mol]
ATGTACACGTGGCGTT | -0.04
AGAAGCACGTGGTTTT | -0.03
TGGTTCACGTGCGGTC | 0.18
CGTTACACGTGAGTGC | 0.33
ATGGTCACGTGGGTGT | 0.04
TTAGGCACGTGTAAGT | 0.12
TGTATCACGTGTTCTA | 0.22
TCAGACACGTGGTGCT | 0.17
GATGCCACGTGGTGTG | -0.04
TCCTTCACGTGTTTGG | 0.34
CGGTGCACGTGTTCAG | -0.04
CTATGCACGTGCGTGG | -0.16
GGGCCCACGTGGTGAG | -0.13
GGGTTCACGTGGGTGG | 0.34
CTGTTCACGTGGTTGC | 0.3
AACGGCACGTGGGCGG | -0.27
TGTAACACGTGGACGG | 0.05
GTCTGCACGTGTGGTC | 0.25
ATTCTCACGTGGAAGG | 0.28
ATGCGCACGTGGTTTA | -0.15
GCAGACACGTGTGTGT | 0.05
GTTGCCACGTGGGAAG | -0.1
GTTGTCACGTGCCGGG | -0.01

Sequence | relative binding free energy [kcal/mol]
ACTATCACGTGGTTGG | 0.15
GTGTTCACGTGGTCTA | 0.16
TAGTTCACGTGGAGGT | 0.21
TGGTACACGTGATTTT | 0.25
TGATTCACGTGGGTTT | 0.2
TATGGCACGTGCGTCT | -0.26
GAATTCACGTGTCGTT | 0.27
GTTATCACGTGAATGT | 0.4
TCATGCACGTGTGCGT | 0.09
TGGAACACGTGGTGTC | 0.01
TTTCTCACGTGGTTTG | 0.14
GTTTTCACGTGTGATC | 0.53
TTAAGCACGTGCGGGC | -0.11
GTGCTCACGTGGAATG | 0.34
ATTGCCACGTGCTGTT | -0.14
TGCGACACGTGTCTGG | -0.06
GTTGGCACGTGGTGTT | -0.06
AATTTCACGTGATGTG | 0.35
TGGTCCACGTGTGCTG | -0.1
CGGTGCACGTGGTGGC | -0.11
TATGTCACGTGCGTAT | 0.05
GATTGCACGTGTTGGG | 0.11
GGGGTCACGTGATAGC | 0.27

Sequence | relative binding free energy [kcal/mol]
GTATGCACGTGATAGG | 0.24
CGTTTCACGTGTGAGG | 0.29
TGTAACACGTGGGGAT | -0.08
GTGTTCACGTGTATTT | 0.24
TGTCTCACGTGGGAGG | 0.2
GGTTTCACGTGTCATG | 0.3
CTGGCCACGTGTTGCG | 0.09
TAGATCACGTGAGGGG | 0.41
GTCAGCACGTGGTTAT | 0.04
TGGGGCACGTGGAGGA | -0.06
GCGTTCACGTGTCGTG | 0.28
TGGCGCACGTGGAATG | 0.04
CTGTGCACGTGGATAT | -0.05
TATTACACGTGATATT | 0.12
CGTGGCACGTGGACGG | 0.02
CGGGGCACGTGTGCTT | -0.15
TGTTTCACGTGTTGTC | 0.21
GGGGGCACGTGCTTTT | -0.12
AGATACACGTGGTAAT | 0.12
GACGGCACGTGGGCGG | -0.11
GTGTACACGTGTGGTG | -0.01
TGTATCACGTGATTAG | 0.05
AAATTCACGTGTTATG | 0.16

Sequence | relative binding free energy [kcal/mol]
GAGGGCACGTGAGGGG | 0.24
GATTACACGTGTGATA | 0.35
TTTGTCACGTGAAAAT | 0.37
TAGGGCACGTGCAATT | -0.08
GAGTGCACGTGTGCTT | -0.01
CTGTCCACGTGGGTCT | 0.01
GAAAACACGTGGGTGG | -0.03
CATTGCACGTGAGATG | 0.26
GGTGCCACGTGAGGAA | 0.21
GAAAGCACGTGGCGGG | -0.18
TGCGGCACGTGATATG | -0.03
TTAAGCACGTGTTATA | -0.1
TCTTACACGTGGTTTA | 0.09
TAGGTCACGTGTGGCG | 0.06
CTGGGCACGTGGTCGG | -0.32
AGAAACACGTGTTATT | 0.15
TAGACCACGTGTGGGT | -0.11
TGGAACACGTGCAGGT | -0.04
TGTTACACGTGGGGAT | 0
GGTTGCACGTGTTTAT | 0.08
AGGGGCACGTGACTTG | 0.02
CTATTCACGTGGGGGC | 0.17
CAGTTCACGTGAAAGG | 0.34
